# Assay results published in a collection of fitness landscapes (doi:10.1016/j.celrep.2020.107928).
# In all, about 81,000 sequences were measured (“one-hybrid fitness for binding NBS DNA”: median about -0.1, highest 2% from about 0.36 on). Some of the results follow.
# B1: Caulobacter ParB omega fusion; a variant is named by its letters at X, in order, B8GW30 (parent)
# chain: MESVVVGEPGMSEGRRGLGRGLSALLGEVDAAPAQAPGEQLGGSREAPIEILQRNPDQPRRTFREEDLEDLSNSIREKGVLQPILVRPSPDTAGEYQIVAGERAWRAAQRAGLKTVPIMVRELDDLAVLEIGIIENVQRADLNVLEEALSYKVLMEKFERTQENIAQTIGKSXSHVANXMRLLXLPDEVQSYLVSGELTAXHARAIAAAADPVALAKQIIEGGLSVRETEALARKAPNLSAGKSKGGRPPRVKDTDTQALESDLSSVLGLDVSIDHRGSTGTLTITYATLEQLDDLCNRLTRGI
# Variants of: B1
# Experiment: one-hybrid fitness for binding NBS DNA (the Noc-binding site; scaled: cognate 1, non-cognate 0); higher = stronger binding
# Details: with NBS DNA site
# Method in brief: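 The reporter was HIS3, with the binding site 19 bp from the promoter, in E. coli USO used for bacterial one-hybrid selection of Caulobacter ParB libraries with four specificity codons randomised. Growth was on M9 lacking histidine, with 0.1 mM IPTG and 5 mM 3-AT, for 48 hours at 37°C. Illumina sequencing covered plasmids before and after selection; three replicate libraries were pooled and variants with under 10 reads dropped. A fitness score is the log change in variant-to-wild-type read ratio, rescaled to the cognate and non-cognate references.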
row,Variant,one-hybrid fitness for binding NBS DNA
1,NTNQ,≤ 0.2
2,PTWW,≤ 0.2
3,KPLD,≤ 0.2
4,FSLC,≤ 0.2
5,VVQF,≤ 0.2
6,NVGS,≤ 0.2
7,VAQW,≤ 0.2
8,PPTR,≤ 0.2
9,MCMR,≤ 0.2
10,TLHG,≤ 0.2
11,HSHM,≤ 0.2
12,QHSS,0.37
13,CMRT,≤ 0.2
14,REFG,≤ 0.2
15,VMAV,≤ 0.2
16,SLIG,≤ 0.2
17,PNPL,≤ 0.2
18,LDCG,≤ 0.2
19,NVLW,≤ 0.2
20,KMQC,≤ 0.2
21,TLIR,≤ 0.2
22,CWAY,≤ 0.2
23,QPPQ,≤ 0.2
24,PAQC,≤ 0.2
25,TAQD,≤ 0.2

row,Variant,one-hybrid fitness for binding NBS DNA
1,PAVK,≤ 0.2
2,INYG,≤ 0.2
3,LYVP,≤ 0.2
4,VKNT,≤ 0.2
5,SGAY,≤ 0.2
6,VYLV,≤ 0.2
7,FESD,≤ 0.2
8,LHKI,≤ 0.2
9,NRCV,≤ 0.2
10,ARGG,≤ 0.2
11,AIES,≤ 0.2
12,KVKV,≤ 0.2
13,RGQE,≤ 0.2
14,KTKM,≤ 0.2
15,VSDC,≤ 0.2
16,MEDR,≤ 0.2
17,RWQM,≤ 0.2
18,KRNG,≤ 0.2
19,RRLG,0.245
20,VRKG,≤ 0.2
21,WHTS,≤ 0.2
22,PRYK,≤ 0.2
23,TPKL,≤ 0.2
24,KVKE,≤ 0.2
25,NHYF,≤ 0.2

row,Variant,one-hybrid fitness for binding NBS DNA
1,VIRT,≤ 0.2
2,HART,≤ 0.2
3,LGWC,≤ 0.2
4,VGSV,≤ 0.2
5,DATA,≤ 0.2
6,NTGC,≤ 0.2
7,HAPS,≤ 0.2
8,LYSS,≤ 0.2
9,CMHG,≤ 0.2
10,PIFR,≤ 0.2
11,LHEL,≤ 0.2
12,GPGA,≤ 0.2
13,QCTF,≤ 0.2
14,DMYA,≤ 0.2
15,RVHF,≤ 0.2
16,HAQR,≤ 0.2
17,NQDT,≤ 0.2
18,YSTM,≤ 0.2
19,QGCI,≤ 0.2
20,SAGI,≤ 0.2
21,MLIY,≤ 0.2
22,AATP,≤ 0.2
23,PTLA,≤ 0.2
24,KVMR,≤ 0.2
25,SVHG,≤ 0.2

row,Variant,one-hybrid fitness for binding NBS DNA
1,KDTP,≤ 0.2
2,TRLD,≤ 0.2
3,HSVG,≤ 0.2
4,QRLM,0.322
5,RDNV,≤ 0.2
6,WPPI,≤ 0.2
7,VCNR,≤ 0.2
8,VEPF,≤ 0.2
9,RTWV,≤ 0.2
10,RFAQ,≤ 0.2
11,DKPG,≤ 0.2
12,QMNK,≤ 0.2
13,IPTA,≤ 0.2
14,HWSY,≤ 0.2
15,QGTN,≤ 0.2
16,QWDG,≤ 0.2
17,NPKV,≤ 0.2
18,GFTA,≤ 0.2
19,FLLV,≤ 0.2
20,CANR,≤ 0.2
21,YRLY,≤ 0.2
22,EELC,≤ 0.2
23,AMKR,≤ 0.2
24,SFTC,≤ 0.2
25,TREC,≤ 0.2

row,Variant,one-hybrid fitness for binding NBS DNA
1,RTGW,≤ 0.2
2,HVVA,≤ 0.2
3,HCAV,≤ 0.2
4,PTMT,≤ 0.2
5,LSPN,≤ 0.2
6,SYPK,≤ 0.2
7,QCIF,≤ 0.2
8,RICQ,≤ 0.2
9,SPKW,≤ 0.2
10,RGWD,≤ 0.2
11,GQPI,≤ 0.2
12,WEDR,≤ 0.2
13,LLKQ,≤ 0.2
14,YYKV,≤ 0.2
15,NVDT,≤ 0.2
16,PGEY,≤ 0.2
17,PEDV,≤ 0.2
18,QRSR,0.997
19,QQKS,0.714
20,FYIS,≤ 0.2
21,GDGC,≤ 0.2
22,TDDL,≤ 0.2
23,VLET,≤ 0.2
24,FPQT,≤ 0.2
25,PHNC,≤ 0.2

row,Variant,one-hybrid fitness for binding NBS DNA
1,VDWG,≤ 0.2
2,TGKG,≤ 0.2
3,RVWI,≤ 0.2
4,ILPS,≤ 0.2
5,CHSW,≤ 0.2
6,GMMG,≤ 0.2
7,VRCA,≤ 0.2
8,QSFQ,≤ 0.2
9,DRRL,≤ 0.2
10,DNPI,≤ 0.2
11,LPIR,≤ 0.2
12,KARQ,≤ 0.2
13,WDKR,≤ 0.2
14,GTLV,≤ 0.2
15,NPHD,≤ 0.2
16,VRLH,≤ 0.2
17,RLAE,≤ 0.2
18,MSRV,≤ 0.2
19,NARF,≤ 0.2
20,LGHS,≤ 0.2
21,DPAW,≤ 0.2
22,STQV,≤ 0.2
23,PHDF,≤ 0.2
24,RMFK,≤ 0.2
25,AFVV,≤ 0.2

row,Variant,one-hybrid fitness for binding NBS DNA
1,THNS,≤ 0.2
2,PNVY,≤ 0.2
3,RCGD,≤ 0.2
4,RLAT,0.423
5,NTCD,≤ 0.2
6,ALDH,≤ 0.2
7,RKYN,≤ 0.2
8,WREE,≤ 0.2
9,RSHH,≤ 0.2
10,QWSF,≤ 0.2
11,MVKG,≤ 0.2
12,FAVC,≤ 0.2
13,DSKM,≤ 0.2
14,AQAE,≤ 0.2
15,MCDR,≤ 0.2
16,DSVY,≤ 0.2
17,HARQ,≤ 0.2
18,ACPM,≤ 0.2
19,SHKY,≤ 0.2
20,SRLC,≤ 0.2
21,NHAL,≤ 0.2
22,PGFP,≤ 0.2
23,RHRV,≤ 0.2
24,VTTG,≤ 0.2
25,DQHR,≤ 0.2

row,Variant,one-hybrid fitness for binding NBS DNA
1,RNHT,≤ 0.2
2,PKYE,≤ 0.2
3,PGPI,≤ 0.2
4,TGTQ,≤ 0.2
5,PDVM,≤ 0.2
6,VTIY,≤ 0.2
7,NMNS,≤ 0.2
8,KLYP,≤ 0.2
9,NGYR,≤ 0.2
10,WQQI,≤ 0.2
11,GPEI,≤ 0.2
12,QMLI,≤ 0.2
13,ALQG,≤ 0.2
14,NRKG,≤ 0.2
15,SPPR,≤ 0.2
16,RTNM,≤ 0.2
17,CRRR,0.373
18,IDNE,≤ 0.2
19,FSTM,≤ 0.2
20,NLKN,≤ 0.2
